In the antibiotic and cytotoxicity screens of Wong et al. (2023):
The other results are listed elsewhere or left out.

Legend:
[1] = tested on: HSkMC (human skeletal muscle cells); assay: cytotoxicity call (relative viability < 0.9); conditions: 10 µM
[2] = tested on: S. aureus RN4220; assay: growth inhibition call (relative growth <= 0.2); conditions: 50 µM

| Structure (SMILES) | cytotoxicity call [1] | growth inhibition call [2] |
| --- | --- | --- |
| Cc1noc(C)c1S(=O)(=O)Nc1cccc2c1O[C@H](CN(C)S(=O)(=O)c1c(C)noc1C)[C@H](C)CN([C@@H](C)CO)C2=O | inactive | inactive |
| COc1ccc(S(=O)(=O)Nc2ccc3c(c2)C(=O)N([C@H](C)CO)C[C@@H](C)[C@H](CN(C)C(=O)NC2CCCCC2)OCCCC[C@H](C)O3)cc1 | inactive | inactive |
| CC(=O)O[C@@H]1CC[C@@]2(C)[C@@H](CC[C@]3(C)[C@@H]2C(=O)C=C2[C@@H]4[C@@H](C)[C@H](C)CC[C@]4(C)CC[C@]23C)[C@@]1(C)C(=O)O | inactive | active |
| O=C1CN(S(=O)(=O)Cc2ccccc2)C[C@H]2[C@H](c3ccc(C#Cc4ccc(F)cc4)cc3)[C@H](CO)N12 | active | inactive |
| C[C@@H]1CN([C@@H](C)CO)C(=O)Cc2cc(NC(=O)Nc3ccc(C(F)(F)F)cc3)ccc2O[C@@H]1CN(C)C(=O)Nc1cccc2ccccc12 | active | inactive |
| COc1ccc(S(=O)(=O)Nc2ccc3c(c2)C(=O)N([C@@H](C)CO)C[C@H](C)[C@H](CN(C)CC2CCCCC2)OCCCC[C@H](C)O3)cc1 | inactive | inactive |
| C=CC[C@H](Nc1ccccc1C)c1ccc(Cl)cc1 | inactive | inactive |
| O=C(C[C@@H]1CC[C@H](NS(=O)(=O)c2ccccc2F)[C@@H](CO)O1)NCCCN1CCOCC1 | inactive | inactive |
| C[C@@H]1CCCCO[C@H](CN(C)Cc2ccc3c(c2)OCO3)[C@@H](C)CN([C@H](C)CO)C(=O)c2cc(NC(=O)Nc3ccccc3)ccc2O1 | inactive | inactive |
| C[C@H](CO)N1C[C@H](C)[C@H](CN(C)Cc2ccc(C(=O)Nc3ccccc3N)cc2)Oc2ccc(NC(=O)Nc3ccc(F)cc3)cc2C1=O | inactive | inactive |
| C[C@H](CO)N1C[C@H](C)[C@H](CN(C)Cc2ccc(Cl)c(Cl)c2)Oc2ccc(NC(=O)Cc3ccccc3)cc2CC1=O | inactive | inactive |
| C[C@@H]1CN([C@@H](C)CO)C(=O)c2cc(NS(=O)(=O)c3ccc(Cl)cc3)ccc2O[C@@H](C)CCCCO[C@H]1CN(C)Cc1ccc(C(=O)O)cc1 | inactive | inactive |
| C[C@@]1(O)N(CC(=O)O)C(=O)OC12CCCCC2 | inactive | inactive |
| C[C@@H]1CCCCO[C@@H](CN(C)Cc2ccc(C(F)(F)F)cc2)[C@@H](C)CN([C@@H](C)CO)C(=O)c2cc(NC(=O)Nc3ccccc3)ccc2O1 | inactive | inactive |
| O=C(N[C@H]1CCS(=O)(=O)C1)N1CCCCC1 | inactive | inactive |
| CCS(=O)(=O)Nc1ccc2c(c1)C(=O)N(C)[C@H]1CC[C@H](CC(=O)N[C@@H]3CCN(Cc4ccccc4)C3)O[C@H]1CO2 | inactive | inactive |
| COc1ccccc1C#Cc1ccc2c(c1)O[C@H](CN(C)Cc1cccnc1)[C@H](C)CN([C@H](C)CO)S2(=O)=O | inactive | inactive |
| C[C@@H]1CN([C@H](C)CO)C(=O)c2cc(NC(=O)Cc3ccccc3)ccc2O[C@@H](C)CCCCO[C@@H]1CN(C)Cc1ccc2c(c1)OCO2 | inactive | inactive |
| C[C@@H]1CN([C@@H](C)CO)C(=O)Cc2cc(NC(=O)NC3CCCCC3)ccc2O[C@@H]1CN(C)Cc1ccc(-c2ccccc2)cc1 | inactive | inactive |
| C[C@@H]1CN([C@@H](C)CO)C(=O)c2cc(N(C)C)ccc2O[C@@H](C)CCCCO[C@H]1CN(C)C(=O)Nc1cccc2ccccc12 | inactive | inactive |
| C[C@H](CO)N1C[C@H](C)[C@@H](CN(C)S(C)(=O)=O)OCCCC[C@H](C)Oc2ccc(NS(C)(=O)=O)cc2C1=O | inactive | inactive |
| O=C(C[C@@H]1C[C@@H]2c3cc(NS(=O)(=O)c4ccc(F)cc4)ccc3O[C@@H]2[C@H](CO)O1)NCc1ccccc1 | inactive | inactive |
| COc1ccc(CN(C)C[C@H]2OCCCC[C@H](C)Oc3ccc(NS(=O)(=O)c4ccc(Cl)cc4)cc3C(=O)N([C@@H](C)CO)C[C@H]2C)cc1 | inactive | inactive |
| COc1cccc(S(=O)(=O)Nc2ccc3c(c2)[C@H]2C[C@H](CC(=O)NC4CCCCC4)O[C@@H](CO)[C@H]2O3)c1 | inactive | inactive |
| CC(C)NC(=O)Nc1ccc2c(c1)C(=O)N([C@@H](C)CO)C[C@H](C)[C@@H](CN(C)S(=O)(=O)c1cccs1)O2 | inactive | inactive |
| CCS(=O)(=O)Nc1ccc2c(c1)C(=O)N(C)[C@@H]1CC[C@@H](CC(=O)NCc3ccccc3F)O[C@H]1CO2 | inactive | inactive |
